Test results: publication PMC12040169 (PLOS Biology, 2025)
The list shows a part of the results.

The compounds below were run on T1, C. trachomatis L2/434/Bu expressing GFP (CTL2-GFP). Details: total inclusion area; 28.5 h, 10 µM; inhibitor.
T1 construct: L2/434/Bu GFP intracellular growth in HeLa cells
Parameters: species or system HeLa; C. trachomatis total inclusion area by high-content imaging, normalised to DMSO
In short: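 Following bulk GFP and resorufin fluorescence reads, infected cells were fixed, Hoechst-stained and imaged on a high-content platform. Inclusion total area and number per well served as growth proxies; nuclei counts indicated host viability. MICs were derived as for the fluorescence assay.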
`OCCCNc1nccnc1-c1ccco1` [CBK037346] was tested, and the “% of control remaining” value was 65.9621. `O=C(CN1CCC(C(=O)c2ccc(F)cc2)CC1)Nc1ncccn1` [CBK149131] was tested, and the “% of control remaining” value was 105.101. `Cc1n[nH]c(O)c1C(c1cccc([N+](=O)[O-])c1)c1c(C)n[nH]c1O` [CBK264753] was tested, and the “% of control remaining” value was 113.169. In the case of `O=C(CCOc1ccccc1)Nc1cncc(OC2CCNCC2)n1` [CBK026734T], the “% of control remaining” value is reported as 78.5259. For `COc1cc2oc(=O)c(CC(=O)N3CCCC(C(=O)O)C3)c(C)c2cc1Cl` (centres unmarked) [CBK286754], the “% of control remaining” value was 113.507. With `Cc1nc(S(=O)(=O)N2CCC(OCC3CC3)C2)cn1C` (centres unmarked) [CBK304668] the “% of control remaining” value was 46.0233. With `CSc1ncc(C(=O)NC2CCCC2)c(NC2CCCC2)n1` [CBK291223] the “% of control remaining” value was 103.295. With `Oc1nc(O)c2c(n1)NC1(CCC1)[C@@H]1C[C@@H](O)[C@@H](O)[C@H]21` [CBK303249] the “% of control remaining” value was 54.3707. `OCc1ccc(CN2C[C@H](O)C[C@H]2c2nc(-c3cnccn3)no2)o1` [CBK288832] was tested, and the “% of control remaining” value was 100.593. With `Cc1ccc(C#N)cc1S(=O)(=O)NC(=O)COCC1CC1` [CBK304427] the “% of control remaining” value was 64.377. For `COc1cc2ncnc(NCc3ccccc3)c2cc1OC` [CBK287984], the “% of control remaining” value was 83.3091. With `CCOC(=O)C1CSCN1C(=O)c1cnn(C(CC)CC)c1C` (centres unmarked) [CBK304759] the “% of control remaining” value was 87.1412. In the case of `C[C@H](c1ccccc1)n1c(=O)[nH]c2ncc(-c3ccc(C(=O)N4CCN(C)CC4)cc3)nc21` [CBK064559], the “% of control remaining” value is reported as 62.2841. In the case of `CCn1c(CC2CCN(C(=O)CCN3CCCCO3)CC2)nn(C)c1=O` [CBK307217], the “% of control remaining” value is reported as 63.3248. For `O=C(NC(c1ccccc1)c1ccccc1)N1CCN(c2ccccc2)CC1` [CBK155177], the “% of control remaining” value was 91.6323. In the case of `COc1ccc(CCNC2CCN(Cc3ccccc3)CC2c2ccccc2)cc1OC` (centres unmarked) [CBK286166], the “% of control remaining” value is reported as 113.495. `CC(C)(C)c1nc(COc2ccc3nonc3c2)no1` [CBK005831] was tested, and the “% of control remaining” value was 91.2876. For `CC(C)NC(=O)N1Cc2nc[nH]c2C[C@H]1c1nc(-c2ccc(OC(F)(F)F)cc2)no1` [CBK288960], the “% of control remaining” value was 56.4516. With `Cn1cc(Cl)c(C2CCCCCN2C(=O)c2cc(C3CC3)on2)n1` (centres unmarked) [CBK285120] the “% of control remaining” value was 81.6779. For `CCCC(=O)Nc1nnc(-c2ccc(Cl)cc2)o1` [CBK287594], the “% of control remaining” value was 88.2343. In the case of `Cc1nc(C)n(CC2CCCCN2Cc2cn3ccccc3c2C#N)n1` (centres unmarked) [CBK306102], the “% of control remaining” value is reported as 75.1549. In the case of `CC#Cc1cn([C@H]2C[C@@H](O)[C@@H](CO)O2)c(=O)[nH]c1=O` [CBK201182], the “% of control remaining” value is reported as 119.931. For `O=C(CN1CCC(C(=O)NC(c2ccccc2)c2ccsc2)CC1)c1ccc(F)cc1` (centres unmarked) [CBK148432], the “% of control remaining” value was 97.9909. With `Cn1cccc1C(=O)N[C@H]1C[C@H]2C(=O)Nc3ccc(/C=C/c4ccccc4)cc3C(=O)N2C1` [CBK289367] the “% of control remaining” value was 91.9469. `O=C(NC1CCCCC1)c1ccc(-c2ccccc2)nc1NCCc1ccccn1` [CBK076553] was tested, and the “% of control remaining” value was 112.345. With `Cc1occc1-c1nn(CCN2CCCCC2)c(=O)o1` [CBK283815] the “% of control remaining” value was 112.804. In the case of `CS(=O)(=O)Nc1ccc2cc(-c3ccccc3)cnc2n1` [CBK061899], the “% of control remaining” value is reported as 103.139. In the case of `CC(C)Oc1ccc(C(=O)C2=C(O)C(=O)N(Cc3cccnc3)C2c2cccc([N+](=O)[O-])c2)cc1` (centres unmarked) [CBK264936], the “% of control remaining” value is reported as 119.741. `O=P(O)(CN1CCCCC1)C1CCCCC1O` (centres unmarked) [CBK262325] was tested, and the “% of control remaining” value was 85.7829. In the case of `COc1cccc(Oc2cnc(-c3cccc(C(F)(F)F)c3)c(N)n2)c1` [CBK145177], the “% of control remaining” value is reported as 96.694. For `O=C(Cn1c(-c2cccs2)cc2cccnc21)N1CCCC1` [CBK282453], the “% of control remaining” value was 115.735. `Cc1ccc(-c2ncc(OCCn3ccnc3)nc2N)cc1C` [CBK145148] was tested, and the “% of control remaining” value was 103.251. In the case of `Cn1cc(CN2C[C@H]3CN(C(=O)C4CCC4)C[C@@]3(C(=O)O)C2)cc1C#N` [CBK307105], the “% of control remaining” value is reported as 73.7135. `CS(=O)(=O)Nc1ncc(-c2ccco2)cc1C(=O)NCCc1c[nH]c2ccccc12` [CBK076569] was tested, and the “% of control remaining” value was 115.056. `COc1ccc(Br)c(C(CO)N(C)C(=O)CC#N)c1` (centres unmarked) [CBK304240] was tested, and the “% of control remaining” value was 33.9467. In the case of `O=C(O)CSc1nnc(-c2ccncc2)n1-c1ccccc1` [CBK264426], the “% of control remaining” value is reported as 97.5639. For `c1nc(N2CCOCC2)c2cn[nH]c2n1` [CBK016811], the “% of control remaining” value was 91.7969. For `Cc1cc(F)ccc1S(=O)(=O)N1CCC2(CC1)CNC(=O)C2` [CBK283354], the “% of control remaining” value was 101.377. With `COc1ccc(OC)c2c1cc(C(=O)NC[C@H]1CC[C@H](C(=O)O)CC1)n2C` [CBK286636] the “% of control remaining” value was 96.8191. `O=[N+]([O-])c1ccc(-c2csc(Nc3ccc4c(c3)OCO4)n2)cc1` [CBK262448B] was tested, and the “% of control remaining” value was 81.0378. For `CN(C)C(CC(=O)Nc1cccc(Cl)c1Cl)C(=O)O` (centres unmarked) [CBK266952], the “% of control remaining” value was 84.2569. With `Cc1cc(/C=C(/C#N)c2ccc(C(=O)O)cc2)c(C)n1-c1ccc(S(N)(=O)=O)cc1` [CBK268896] the “% of control remaining” value was 103.747. With `O=C(NCCO)c1cccc(-c2cncc(NCCCN3CCOCC3)n2)c1` [CBK065432] the “% of control remaining” value was 123.083. With `O=C(COc1ccc2ccccc2c1)Nc1ccc(S(=O)(=O)N2CCCCC2)cc1` [CBK263765] the “% of control remaining” value was 94.0143. With `Cc1sc(-c2cnccn2)nc1O` [CBK067738] the “% of control remaining” value was 88.8687. For `CCN(CC)c1c(C)nc2ccc(C(=O)N(C)CCN(C)C)cn12` [CBK145950], the “% of control remaining” value was 95.7067. In the case of `CC(=O)N1CCc2nc(C)nc(N(C)Cc3cnn(C(C)C)c3)c2CC1` [CBK306968], the “% of control remaining” value is reported as 100.576. `O=C(N[C@H]1CCN2C(=O)N(c3ccc(Br)cc3)C(=O)[C@@H]2C1)c1cccnc1` [CBK289557] was tested, and the “% of control remaining” value was 102.725. In the case of `O=C(Nc1ccncc1)c1cc(-c2ccncc2)nc2ccccc12` [CBK287787], the “% of control remaining” value is reported as 88.2464. In the case of `O=C(NC(c1ccc(-c2ccccc2)cc1)c1cnccn1)C1CCN(CCOc2ccc3ccccc3c2)CC1` (centres unmarked) [CBK147982], the “% of control remaining” value is reported as 98.888.
